# Values joined by “and” are separate entries in the source; they are usually repeats but may differ in a detail not shown here. Identical values can stand only once. The inconclusive results got no clear call from the source; some entries with a clear call stand among them for comparison. Potencies of inconclusive entries are left out as doubtful fits. Active and inactive are the calls of the source. Calls come from the whole dose curve; as a rule, active = well fitted curve in the direction sought with a large enough effect in the repeat runs; inconclusive = weak or mixed curves; inactive = no such curve, though single readings can be large; an effect the other way counts as inactive or inconclusive.
# Assay: A CellTox Green Cytotoxicity Assay to monitor cytotoxicity in HEK293 cells - 16 hour (AID 1224888); note: nearly all actives have a fitted effect of over 35% in size
# Settings: CellTox Green fluorescence; series mostly up to 76.8 µM
# Procedure, shortened: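 Each value comes from one timepoint of a single continuous run in which HEK293 cells with CellTox Green were exposed to compound for up to 40 h at 37 C, dye fluorescence rising with cell death.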
# Potency is the fitted concentration of half-maximal effect; tags give direction and shape of the fitted curve.
row,SMILES,Potency
1,C=CCOC(Cn1ccnc1)c1ccc(Cl)cc1Cl (centres undefined),"inconclusive [activator, single point]"
2,O=C(N[C@H](c1ccccc1)[C@@H]1CN2CCC1CC2)c1c(Cl)ccc(C(F)(F)F)c1Cl,"inconclusive [activator, single point]"
3,CCCCCCCCCCCC[N+](C)(C)CCOc1ccccc1,active: 21.9 µM and active: 23.9 µM
4,CCOC(=O)c1ccccc1N,"inconclusive [activator, partial curve]"
5,N#CC(CCc1ccc(Cl)cc1)(Cn1cncn1)c1ccccc1 (centres undefined),"inconclusive [activator, single point]"
6,C[C@]12C/C(=C/O)C(=O)C[C@@H]1CC[C@@H]1[C@@H]2CC[C@@]2(C)[C@H]1CC[C@]2(C)O,"inconclusive [activator, partial curve]"
7,Oc1c(Cl)c(Cl)cc(Cl)c1Cl,"inconclusive [activator, partial curve]"
8,CC(c1ccccc1)(c1ccc(O)cc1)c1ccc(O)cc1,"inconclusive [activator, single point]"
9,Cc1c([N+](=O)[O-])cc2c(c1[N+](=O)[O-])C(C)(C)CC2(C)C,"inconclusive [activator, partial curve, poor fit]"
10,O=C(CCl)c1ccccc1,"inconclusive [activator, single point]"

# Assay: qHTS RealTime-Glo MT Cell Viability Assay in HepG2 cells - 0 hour (AID 1224889); note: nearly all actives have a fitted effect of over 50% in size
# Settings: RealTime-Glo luminescence; series mostly up to 76.8 µM
# Procedure, shortened: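 Luminescence read-out: viable HepG2 cells reduce a prosubstrate to a NanoLuc substrate, giving a signal proportional to live cell number. Reads taken at 0, 8, 16, 24, 32 and 40 h of compound exposure at 37 C.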
row,SMILES,Potency
1,C[C@]12C/C(=C/O)C(=O)C[C@@H]1CC[C@@H]1[C@@H]2CC[C@@]2(C)[C@H]1CC[C@]2(C)O,"inconclusive [cytotoxic, partial curve]"
2,O=C(O)C(F)(F)C(F)(F)C(F)(F)C(F)(F)C(F)(F)C(F)(F)C(F)(F)C(F)(F)C(F)(F)C(F)(F)F,"inconclusive [rising, single point]"
3,ClP(Cl)(Cl)(Cl)Cl,"inconclusive [cytotoxic, partial curve]"
4,C[C@]12CCC(=O)C=C1CC[C@@H]1[C@@H]2CC[C@@]2(C)[C@H]1CC[C@]2(C)O,active: 14.3 µM and active: 9.52 µM

# Source: PubChem BioAssay (Tox21)
